Data: the supplement of paper PMC3334620
Whole data set: some 33,000 sequences, median “E-score (-0.5 to 0.5)” near -0.013, cut for the highest 2% near 0.3. The list shows a part of the results.

Target: T1, Msn1 (UniProt P22148)
T1 sequence: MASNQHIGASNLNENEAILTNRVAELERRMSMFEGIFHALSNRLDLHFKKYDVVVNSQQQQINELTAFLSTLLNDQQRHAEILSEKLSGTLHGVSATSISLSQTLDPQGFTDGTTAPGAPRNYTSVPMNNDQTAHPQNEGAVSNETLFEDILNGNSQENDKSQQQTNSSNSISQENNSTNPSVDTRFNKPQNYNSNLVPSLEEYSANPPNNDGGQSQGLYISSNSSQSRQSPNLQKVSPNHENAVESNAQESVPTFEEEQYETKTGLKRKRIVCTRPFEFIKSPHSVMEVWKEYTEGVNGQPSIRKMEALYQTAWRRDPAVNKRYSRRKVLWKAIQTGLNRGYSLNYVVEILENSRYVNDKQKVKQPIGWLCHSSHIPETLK
Test: PBM E-score (8-mer binding enrichment) (E-score (-0.5 to 0.5)); higher = stronger / more preferred TF binding; most listed sequences are background and not binding sites
Settings: protein concentration: 200 nM; construct: GST-full length
How it was run: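 Yeast transcription factors carrying a GST tag, as full-length proteins or DNA-binding domains, were produced by PURExpress in vitro transcription/translation. About 100-200 nM protein was applied to universal all-10-mer Agilent arrays, double-stranded by primer extension on fresh or once-stripped slides. Bound protein was detected with fluorescent anti-GST, and scans were normalised with masliner. The Universal PBM Analysis Suite gave each ungapped eight-base word, pooled with its reverse complement, an E-score, a modified Wilcoxon-Mann-Whitney statistic.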

Sequence | PBM E-score
ACTCCCGC | -0.119
ACACGCCA | 0.0178
CGGAGCAA | 0.178
CTCTTACA | 0.0199
CGGATCTA | -0.0937
CGGCCACA | -0.0351
ACGACCCA | -0.15
GCATGCTA | -0.159
CATTGATC | 0.0339
ATGTATAC | 0.133
CGGGCCTA | -0.124
GACGAGCC | -0.0533
GAACTTTA | 0.0977
CATCCGGG | -0.176
TTAAACAA | -0.00485
CAAAAGGC | 0.137
GGCACGCC | -0.331
CATTTTCC | 0.131
GTATACGA | -0.112
AATGAACA | 0.0706
GCAACAGA | 0.00873
AACCTCAT | 0.0119
ACCACAGG | -0.142
ATCCCGCC | -0.111
ATCTCACG | -0.0816

Sequence | PBM E-score
ATCCTTAG | -0.2
AGATAGAT | -0.0207
GGCTATAA | -0.0391
CAAAGCGC | -0.0695
CGGACCAG | -0.125
ACACGGCG | 0.0249
ACCCGGAT | -0.0832
ATGAATGG | 0.15
AGGCTCAA | -0.133
ACGCGTAA | 0.0124
CGCAATTC | 0.038
ATTGGACC | -0.101
GCTGGCAC | -0.222
CAGCACCC | -0.154
ATCAAGAG | 0.0633
ACGTGCGA | -0.12
CTCACCAA | 0.0761
ATGGAATC | 0.0966
CTCATGGC | -0.127
TAGCTATA | -0.174
AAGGACTG | -0.0408
GCCCTAAC | -0.0728
GTTCCCGA | 5e-05
ACTACATA | 0.0708
CTGATGCC | 0.0666

Sequence | PBM E-score
CTAATCAC | 0.0956
CTTTCTCC | -0.291
AACCGCAA | 0.149
CCAAAGCC | -0.00175
ACACAGTC | 0.148
CCGTCTAG | 0.0817
GTCTCTAA | 0.133
CCCACATC | -0.199
CAACCGTG | -0.136
ACGAGTAC | 0.146
ATACGCCA | 0.0688
AAGGAATA | 0.144
CGGCGGGA | -0.181
CACGCCCA | -0.0451
AGAGGAGG | -0.382
TCGTATAA | 0.172
CCAAAGAG | -0.0341
AATTTTGG | 0.127
AAATAACC | 0.0634
GAGGTGAA | -0.012
GCTTCAAC | -0.014
CGTCGAAA | 0.114
GGCCGAAC | -0.239
CCCTCCGG | -0.294
GCATGTCA | 0.261

Sequence | PBM E-score
CTCGTCAA | -0.113
CTGTCCCA | 0.281
GAGCCGCC | -0.217
AGTTATAC | 0.128
ACCGAGAC | 0.153
ACTAAGAC | 0.19
GTTCGCGA | 0.199
GAATCGTA | 0.0128
AGCTTTAA | 0.09
GAGAGCAA | -0.252
AGATTACA | 0.0428
GCTAAACC | -0.0855
GGTCAACC | -0.243
CCTCAGCC | -0.225
GCCTGACA | -0.0691
CTATCTAC | 0.1
TCTGTGCA | 0.0332
TACCAACA | 0.175
TGGAGAAA | -0.147
AGTAAGTC | -0.0393
CCAATCTA | -0.0717
AATCCCGC | 0.126
CTGTAAAC | -0.0793
CGTATACC | -0.305
TAGAGGGA | -0.154

Sequence | PBM E-score
ACGCCACA | 0.151
CTTCCCTC | -0.31
ACCTCCCT | -0.226
ACCGGAGC | -0.131
CGGCATCC | 0.101
AAGCAGGT | -0.0389
CAACCTCG | -0.0389
CGAATACG | 0.00759
CGCCAGTA | -0.226
CAGTTTCC | -0.0764
GATTCGCC | -0.133
GATCGTAC | -0.204
AAGGTCCG | -0.0417
ACCACCTC | -0.00496
TGGCCAAA | 0.0563
GGAGGGTA | -0.135
CCCTACAA | 0.0189
GGCAAAAA | 0.269
AAAACGCG | 0.124
AGTCGTCA | 0.0866
ACATCTCT | 0.121
CTAGCTTC | 0.0402
AACATTTG | 0.0852
AGAGAAAT | 0.0169
AAACGTGG | -0.15

Sequence | PBM E-score
GAGGTGCA | 0.0087
AAAGCGCC | -0.0634
AGATAATA | 0.0386
AAATGAAT | -0.0537
CGTTCCTA | -0.249
ACTGGATC | -0.0281
ATACTGCA | 0.0924
CAGATCAG | 0.018
CGCCACTC | -0.178
CGACTATA | 0.0562
AGCCCTAA | -0.0523
ACACACGA | 0.0747
CTATCCAC | 0.0131
AGCCCATG | -0.0144
AGTCTCGG | 0.11
ATGGCATA | 0.061
CTCTTAAA | 0.144
CTTATATC | 0.0464
AGATCCCC | -0.223
CCTAATCA | 0.0796
AGGATAGA | -0.123
ATTACTTC | -0.0372
CCTTTGGA | -0.149
AGTCCCCC | -0.357
AGAAGAAT | -0.0335

Sequence | PBM E-score
CACTCACC | -0.249
AAGGCTCT | -0.105
ATGTCCCC | 0.479
AATATACA | 0.173
CGTGTTCA | 0.161
GGTGGTGA | -0.0848
TAACCTTA | -0.126
CTCCTTAA | -0.0988
GGCTGGAC | -0.135
AGTCACTG | -0.134
ATTTAAAC | 0.226
ATATGTCG | 0.379
ACGAACTC | 0.149
CAGGACGG | -0.092
ATCTCAAT | -0.0866
ACAGTGCT | 0.104
ACGCTAAT | -0.223
GGTGTGTA | 0.0653
GCTCAAGA | -0.102
CTGTATTC | 0.16
CCATTGCC | -0.151
CCGAATCC | 0.0949
